53 compounds from ChEMBL document CHEMBL4888484, “Replenishing the malaria drug discovery pipeline: Screening and hit evaluation of the MMV Hit Generation Library 1 (HGL1) against asexual blood stage Plasmodium falciparum ,using a nano luciferase reporter read-out” (2022) can be followed below.

Out of some 150,000 compounds screened, about 540 (0.36%) showed an effect of 50% or more. This is one part of the list.

The % Inhibition is the relative decrease from the control value, in per cent.

This test relates to Plasmodium falciparum. Briefly: Primary screen in NF54 nanoGlo assay, in single point, at 2uM, 72h; a lower Z score goes with more inhibition. The class given is functional, Erythrocyte. Conditions: timepoint 72 hour.
As to `COc1cccc(-c2cc(C3CCC3)nc(N)c2C#N)c1OC`, the “% Inhibition” value is -25% and the Z score is recorded as 2.56.

In the case of `CCOc1ccc(CNC(=O)COCc2nnc(C(=O)Nc3cccc(F)c3)s2)cc1`, the “% Inhibition” value is on record as -12% and the Z score stood at 1.69.

On to `Cc1cc(C(=O)N(CC2CC2)CC2CC2)ccc1N`, for which the “% Inhibition” value is on record as 9% and the Z score is on record as -1.08.

On to `Cc1nc2ccc(CNC(=O)CN3CCCCC3=O)cc2[nH]1`, for which the “% Inhibition” value was -17% and the Z score amounted to 2.16.

For `O=C(Nc1nc2c(s1)CN(C(=O)C1CC=CCC1)CC2)C1CCCO1` (stereo unspecified), the “% Inhibition” value was -15% and the Z score is reported as 2.44.

In the case of `CCC(C)C(NC(=O)C1CCC1)c1nc(-c2ccc(Cl)cc2)no1` (stereo unspecified), the “% Inhibition” value is 5% and the Z score is given as -0.62.

Turning to `Cc1cccc(-c2nc3cc4c(cc3cc2CN2CCC[C@H](C(N)=O)C2)CCC4)c1`, the “% Inhibition” value is reported as -13% and the Z score stood at 1.27.

`Cc1nn(C)c2nc(N3CCC[C@@]4(CCCO4)CC3)sc12`: the “% Inhibition” value turned out to be 3% and the Z score was -0.52.

Take `O=C(Cn1cc(-c2ccccc2)ncc1=O)N1CCOCC1`: the “% Inhibition” value is given as 1% and the Z score was -0.16.

Turning to `CN1C(C(=O)Nc2ccccc2C(F)(F)F)CC(c2ccc(F)cc2)NS1(=O)=O` (stereo unspecified), the “% Inhibition” value was -3% and the Z score was found to be 0.44.

As for `Cc1cnn([C@@H](C)CNS(=O)(=O)CC2CCCC2)c1`, the “% Inhibition” value worked out at 3% and the Z score was -0.34.

As to `CC(CNS(=O)(=O)C[C@H]1C[C@H]2CCCC[C@H]21)c1nccs1` (stereo partly specified), the “% Inhibition” value was -1% and the Z score is reported as 0.14.

For `CN1CCc2c(NC(=O)NCCc3ccc(O)cc3)cccc21`, the “% Inhibition” value was -2% and the Z score came to 0.17.

On to `CO[C@H]1CCCN(C(=O)c2c(C)oc3ccc(OCc4ccccc4)cc23)C1`, for which the “% Inhibition” value is -27% and the Z score was 2.61.

On to `CN(c1cccc(CCC(=O)O)c1)S(=O)(=O)N1CCc2ccccc2C1`, for which the “% Inhibition” value is 0% and the Z score was -0.02.

Consider `Cn1cc(C#N)cc1C(=O)N1CC[C@@]2(CCCN(C3CCCCC3)C2=O)C1`, for which the “% Inhibition” value stood at 2% and the Z score is -0.29.

Turning to `CC(C)CCC(=O)N1CCN(c2nc3cccnc3n(C)c2=O)CC1`, the “% Inhibition” value was -12% and the Z score stood at 2.24.

For the compound `NC(=O)N1CCCC(C(=O)N2C[C@@H]3[C@H](C2)[C@H]3NC(=O)C(C2CC2)C2CC2)C1` (stereo partly specified), the “% Inhibition” value is recorded as -6% and the Z score is listed as 0.82.

As for `CCc1ccc(C(=O)N2CC[C@H](CC(=O)NCc3ccccc3)C2)cc1`, the “% Inhibition” value amounted to 33% and the Z score is given as -4.72.

Take `CC1CCN([C@@H](CNC(=O)c2ccc(CCNS(C)(=O)=O)s2)c2cccs2)CC1`: the “% Inhibition” value came out at 19% and the Z score is on record as -2.38.

Take `CC(C)n1ncc2ccc(N3C(=O)[C@@H]4CCCCN4C3=O)cc21`: the “% Inhibition” value stood at 1% and the Z score is given as -0.23.

As for `CC[C@H](C)N(Cc1ccc(OC)c(OS(=O)(=O)c2cccc(C(F)(F)F)c2)c1)C(=O)c1cc(C(F)(F)F)cc(C(F)(F)F)c1`, the “% Inhibition” value was -6% and the Z score is listed as 0.66.

On to `C[C@@H](CS(C)(=O)=O)OC(=O)c1cnn(C(C)(C)C)c1`, for which the “% Inhibition” value is 7% and the Z score is on record as -0.96.

Consider `COc1cc([C@H]2N(S(=O)(=O)c3ccccc3)CCN2S(=O)(=O)c2ccc(C)cc2)ccc1CS(=O)(=O)c1ccccc1`, for which the “% Inhibition” value is -5% and the Z score turned out to be 0.72.

On to `O=S1(=O)CCN(c2cc(NCc3cncs3)ccc2F)CC1`, for which the “% Inhibition” value is -14% and the Z score was 1.45.

Take `O=S1(=O)CCCC[C@@H]1CNCc1csnn1`: the “% Inhibition” value was 2% and the Z score is -0.31.

For `CC(C)N(CC(N)=O)CC1CC2C=CC1C2` (stereo unspecified), the “% Inhibition” value is -10% and the Z score came to 1.56.

Regarding `C[C@H]1CN(CC(=O)N2CCNC2=O)CCN1c1ccc2nncn2n1`, the “% Inhibition” value is recorded as -6% and the Z score amounted to 1.03.

With `Cc1ccc(NCCC(=O)N2CCOC[C@H]2c2ncnn2C)cc1Cl`, the “% Inhibition” value is reported as -6% and the Z score turned out to be 0.79.

As to `Cn1ccnc1CCN1CCC(c2cc(Cc3ccccc3)n[nH]2)CC1`, the “% Inhibition” value is -5% and the Z score was found to be 0.94.

Turning to `CCCc1nnc(N2CCCC3(CCNCC3)CC2)s1`, the “% Inhibition” value was -3% and the Z score is listed as 0.44.

Turning to `O=C(N[C@H]1CCOc2ccccc21)c1ccc2c(c1)OCCO2`, the “% Inhibition” value was -7% and the Z score was found to be 1.08.

Regarding `Cn1cnnc1C1CCN(S(=O)(=O)CC2CC3CCC2C3)C1` (stereo unspecified), the “% Inhibition” value is listed as -4% and the Z score amounted to 0.56.

Regarding `N#Cc1ccc(OCc2csc(-c3ncccn3)n2)c(Cl)c1`, the “% Inhibition” value is on record as -2% and the Z score is listed as 0.26.

With `CCC1(CC)CNC(=O)[C@H]1NC(=O)c1nsc2ccccc12`, the “% Inhibition” value was -3% and the Z score turned out to be 0.49.

As to `Cc1cc(C)n(CC2CCN(Cc3cc(C#N)cs3)CC2)n1`, the “% Inhibition” value is -7% and the Z score was 1.18.

Take `Cc1noc(C2(NC(=O)Nc3cnc(CC(C)C)nc3)CCOCC2)n1`: the “% Inhibition” value came to 3% and the Z score is -0.44.

As for `CC(C)[C@H](CNC(=O)c1ccc(Cl)cc1)c1ccnn1C`, the “% Inhibition” value is 1% and the Z score was -0.13.

For `COCCNC(=O)c1cc2c(n1C)CCN(Cc1cccc(OC)c1)C2`, the “% Inhibition” value is listed as 17% and the Z score is -1.97.

Regarding `O=C(c1cccc(C(F)(F)F)c1)N1CCc2[nH]cnc2C12CCCC2`, the “% Inhibition” value is given as -14% and the Z score came out at 1.81.

As for `Cc1cccc2c1nc(CCO)n2-c1cnc(N)cn1`, the “% Inhibition” value worked out at 5% and the Z score is given as -1.01.

With `Clc1cc(CN2CC[C@@]3(CCCOC3)C2)ccc1OCCN1CCOCC1`, the “% Inhibition” value turned out to be 39% and the Z score is reported as -1.21.

As for `Cc1cc(CS(=O)(=O)N2CCCCC[C@H]2c2ccccc2)no1`, the “% Inhibition” value is reported as 0% and the Z score is given as -0.05.

For the compound `Cc1ccc(C(=O)N2CCC3(CC2)C[C@H](CO)N(C(=O)c2ccccc2)C3)s1`, the “% Inhibition” value is -8% and the Z score turned out to be 1.

For `CCCC(=O)N1CC[C@@]2(CCCN(Cc3cccc(C)c3)C2)C1`, the “% Inhibition” value is -10% and the Z score turned out to be 1.77.

As for `Cc1ncsc1CN(Cc1ccccc1)C(=O)CCc1c(C)nn(C)c1C`, the “% Inhibition” value is reported as -14% and the Z score is 2.67.

In the case of `Cc1cnc(OC2CCN(Cc3nc(C)cs3)CC2)nc1`, the “% Inhibition” value was -4% and the Z score was determined as 0.81.

Take `N#Cc1ccc(Cn2ccncc2=O)c(F)c1`: the “% Inhibition” value was -7% and the Z score is listed as 0.87.

For `C[C@H]1CN(S(=O)(=O)c2ccc3c(c2)CCC3)CCO1`, the “% Inhibition” value turned out to be 7% and the Z score is on record as -0.57.

In the case of `CCN1CCN(c2c(CN(CCOC)C(=O)COc3ccccc3)c(C)nn2-c2cccc(F)c2)CC1`, the “% Inhibition” value is recorded as 1% and the Z score is recorded as -0.11.

`CN1CC[C@@]2(CCC1=O)CN(C(=O)CCC(F)(F)F)CCN2C`: the “% Inhibition” value is -1% and the Z score was found to be 0.14.

Regarding `Cc1ccc(NC2=NC(=O)C[C@@H](C(=O)Nc3ccc(C)c(C)c3)N2)cc1`, the “% Inhibition” value was -16% and the Z score was 2.05.

In the case of `COc1cccc(OCCNc2cc(N3CCC[C@@H]3CO)ncn2)c1`, the “% Inhibition” value stood at 25% and the Z score is -3.33.
